The other results are listed elsewhere or left out. At the low end of the ranking, values are background and their order means little. The protein was read in a cell extract, so binding may be indirect.

The test concerns the target T1, HNF4alpha2 (COS-7 nuclear extract) (UniProt P41235).
T1 sequence: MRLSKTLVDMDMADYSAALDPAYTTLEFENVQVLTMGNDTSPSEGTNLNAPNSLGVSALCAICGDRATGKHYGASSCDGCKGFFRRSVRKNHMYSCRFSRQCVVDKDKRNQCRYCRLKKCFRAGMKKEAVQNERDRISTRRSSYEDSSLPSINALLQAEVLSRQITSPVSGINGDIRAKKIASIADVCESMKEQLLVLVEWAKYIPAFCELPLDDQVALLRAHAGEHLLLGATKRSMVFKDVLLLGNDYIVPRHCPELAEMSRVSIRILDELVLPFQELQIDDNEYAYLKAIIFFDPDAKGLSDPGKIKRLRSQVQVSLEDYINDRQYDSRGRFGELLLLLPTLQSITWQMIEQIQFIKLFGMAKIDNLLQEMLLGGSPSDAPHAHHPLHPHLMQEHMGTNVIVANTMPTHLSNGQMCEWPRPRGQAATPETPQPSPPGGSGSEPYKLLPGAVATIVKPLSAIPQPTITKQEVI
As to the kind of experiment: protein-binding microarray. The note with it: COS-7 nuclear extract on double-stranded Agilent 4x180k PBM; binding buffer, salt, pH and temperature not given; high values mean tight binding; double strand, one strand shown; sequences stand for … in …GCCTAGGGAGATTAGAGTATCGGTCGA
On to GCTTTAGATATCAGAAATGCATGAGTGACC, for which the binding signal (log2 normalized intensity) is 2.39. With TCGCGCCCCAACGGATACCTCTTTGAACTG the figure was 0.875. The value for ACTGATTCTCCAGGAAGTTCAGGCCTCGGC was -0.913; that for ACCAAATGGGAACATTCCTCAGGGAATTTC was -0.535; that for ATATTAACCTTTGCCCCAGCTGTCACCCAG was 5.03.

In the case of GCTCTGTGCCTTGTATTTCAAAACTGATAA, the binding signal (log2 normalized intensity) was 0.942. With GAGTTGAGTTGGAGAAGAGCAAAGATCATC the figure was 1.72. The value for ATGCTGGGGACCTTTGGCCTTTACCTGTTA was 4.54; that for GAACTTTTACCTAATGTTCACAATAAGAGG was 0.869; that for CTTGAGGCTGTCTGCTATGCAGAGCTCTTT was -1.08. On to GTCACTGCTCAAAAACACTCAGTTAATTAT, for which the binding signal (log2 normalized intensity) is -1.14. With CAGGGTTCATAGATGATAGTGATAAGGATC the figure was 1.14; with GTGAGCTGTCTAATTTTGCACAGCCAGCCT, -1.3. The value for TACATGAGTGATCCTGAAAACAAATAGAGC was -1.18; that for CGCATCTTTTATAAGGGGCAGCAAACCTAC was -1.09; that for GACAAAGGCTTTGAGTCAACACACCTGTGG was -1.23. With CATCTGAACTCTTCATGGACTCCTCTTATC the figure was 1.6. Consider AAGATAAAAATCAGAGATCAAGATACAGGT, for which the binding signal (log2 normalized intensity) is -1.03. With TTCAGCCGCTTTGAGGTCAATGGTAGAAAA, the binding signal (log2 normalized intensity) worked out at 1.48. In the case of AAGAGGAAAAAGTGGCTTTTTAGGAAACAT, the binding signal (log2 normalized intensity) is 0.195.

With TGTTAGAATGTATTGAGAAGAAACCTTTGC, the binding signal (log2 normalized intensity) stood at 1.9. With CCTATACAGACCTTTGTATATTCCCTTTGT the figure was 2.3; with GAATCAAGGCAAGCCTTATCACTGTTTGGC, -0.852. On to GTTATCCCTAGGAAGGATAAGAGCAAGAAA, for which the binding signal (log2 normalized intensity) was -1.15. The value for CCAAAAACAAAACTGGTCATACAGCCTGAC was -1.15; that for CAGAGAGAGAGAGAGAATGACCCTTGCTTG was 3.01; that for AAGGGAGCACAACCCGGGCGCACAAGATGC was -1.14. With AAGCAAGCTCTGCAATAGAGCCACATTCTG the figure was -1.19. As for GGCTCAACGGGTTAGACGCACGGCAGAGCA, the binding signal (log2 normalized intensity) is -0.989. With GAATTCTTGTCCAACTCCCCTCCCAAGGCA the figure was 4.21; with GCTGTGTGAAGTGACTTGCCCTGTTCACAT, 1.82. With AGAGTTAATAACAGACCATGCCATGCATTT the figure was -1.15. With GGCTAGAAAAGAAGGATAGAGAGTTGGGAG the figure was -1.14; with CTTTCCACTCCCATTACTTCTGTTTGCATT, 1.45; with GCCTGCAAGTTCAAAAGGACTCCCAGAGCA, -1.12. For the sequence CCGTCCTGTCCTGGACTTTCCTTTGTTGGG, the binding signal (log2 normalized intensity) was 2.3.

For GTGTTCAGAGCTTGCTGCATTCCCCCACCT, the binding signal (log2 normalized intensity) worked out at 4.21.

CATGAGAGAAAAGAATAAAATTGTACTTCG: the binding signal (log2 normalized intensity) was 1.02.

Consider CCAGGGTGAGAGGGACCCTTCCTCGGTGGA, for which the binding signal (log2 normalized intensity) was -1.14. The value for CCCTTGGAATGTGACCTTAGACCCCTGAAT was 5.74; that for ACCTCCCCTCTGACCAGAGACATTCCAACC was 1.43; that for CATGTAACCCCTTTTCAATTCCTTATCTCG was 1.04. With CTAAGAGAAATCCACACAGCACTGACCTTT the figure was 6.22; with GATGATCAAAGGTCAGTCTTAGGACCACAT, 4.34; with ATTAGAGAACATGTACTTTGTACTGCTTAT, 4.15.

On to AAAGCGGCTCAGGAAACAGCGCTATCGGGG, for which the binding signal (log2 normalized intensity) was -1.15. Take GACTATTTTATTTTCCCCCTTTGAAGTCTG: the binding signal (log2 normalized intensity) worked out at 3.02. With ACTGCACTGTATCTTATCAGAAACACACCC, the binding signal (log2 normalized intensity) was -0.299. With GGCCTCTCCACTTGGGTATCAGATAGTCCA the figure was 0.681; with GGGTGTAAGAGTGAACTCTGACCATGCCTA, 3.07; with CAGAAGCAATCACAAGGAATGCCCTTATCT, 0.818. The value for AGATCCGAAGTCTAGGACGTTATCAGCAGG was 0.0613; that for CTTTGACACAGGCGACCTTCGCTCGGCTCG was 3.46. The value for ATAGGTTCTACTCTCCCCAGTTCAAAGGTT was 5.27; that for AAACAGAGGCTGAAATGGTTACAAAGGTCA was 4.72. As for TTTACAGAACTCTTCGAAGACACAAAGCTT, the binding signal (log2 normalized intensity) is -1.11. As to AGTTTAAAGGCGTTTGCTCCCATCCCCCCA, the binding signal (log2 normalized intensity) worked out at 4.91. In the case of GCTTGGGGTGGGGTTGGAGTCCAGAGTTCA, the binding signal (log2 normalized intensity) was 3.39. The value for TGTGGACTGCTCCAGTGGACATTGGCCCTT was 6.04. The value for TTTGAAAAGCTGTAGTGAACAAGTCTCCTT was -0.942. The value for CACCCAAACCATCCCAGGCATCCAGGCCAG was -1.15; that for AGATTGCTAGCTGAGAGACTTTATCCGTAT was -0.541; that for TAGGATCTAGCAAATTTGGGAGGGAAGAGG was -1.08. For the sequence GTTGAAGTTCCAGAAGACTACAAATTCCTC, the binding signal (log2 normalized intensity) was -0.798.

In the case of GGACTTTGTTGTTTGCCTCTGAAAACTTTT, the binding signal (log2 normalized intensity) worked out at 2.11. With AGTGAACTGTCTGCTATGTGTATATGAGTG the figure was 1.78; with AGTCTGATTCTAGGGCCCATGCCCTTAGCC, 0.883. The value for CCTAGATGAGATAAGGTTCTGATAAAGTAT was 0.511. The value for GGTTCCTCAGAGGACCTGACATTCTCCACT was -0.989; that for CATGTGCATTTCACAATAGGGTTCAAACTC was 2.14. On to TGAGGGGACAAAGTTCGTGGAAAGTGGAAG, for which the binding signal (log2 normalized intensity) worked out at 2.34.

On to ACAACATGAGTAAACGAGCTATTTAGATAA, for which the binding signal (log2 normalized intensity) is -1.14. As to AAATACATAGCTGGGATGAGATACCCATTC, the binding signal (log2 normalized intensity) was -1.12.

The record behind these values is PMC10726135.
